Screen size: about 350,000 compounds; about 31,000 (8.9%) were called active. This list was built around the results that the source calls inconclusive (neither active nor inactive); the mix of calls is not that of the screen. Calls follow the shape of the dose curve; as a rule, active = well fitted inhibition curve with a large enough effect; inconclusive = small, poorly fitted or top-dose-only effect; inactive = no such curve, though single readings can be large or run the other way. Where the call is inconclusive, the potency comes from a doubtful curve fit.
Biological target: Histone-lysine N-methyltransferase EHMT2 (Homo sapiens) (UniProt Q96KQ7)
Assay: qHTS Assay for Inhibitors of Histone Lysine Methyltransferase G9a; also: nearly all actives have a fitted effect of over 75% in size
Settings: G9a H3K9 monomethylation, AlphaScreen, 2 h; activity, negative = inhibition: at 59 µM (top of the series) unless noted
Text: Methylated lysines, on the N-terminal tails of histone proteins serve as epigenetic markers to recruit factors that can then modify local chromatin structure to lead to functional consequences. G9a and other members of the SUV39 family of the SET domain-containing superfamily of histone lysine methyltransferases (HMT) have been identified to specifically methylate Lys9 of histone H3 (H3K9). G9a catalyzes the mono- and di-methylation of H3K9 in mammalian euchromatic regions, where the resulting H3K9me2 is indicative of transcriptional repression. […] The inhibition of G9a will result in transcriptional activation and work synergistically with DNA methyltransferase and histone deacetylase inhibitors, to kill cancer cells. This qHTS assay for identification of G9a inhibitors is a chemiluminescence based AlphaScreen (PerkinElmer). Methylation of biotinylated-histone peptide is measured through specific antibody-based detection, in conjunction with streptavidin-coated donor and anti-IgG antibody-coated acceptor beads. The method is particularly well suited for detection of inhibitors acting by the desired histone peptide competitive mechanism and is applicable to testing other HMTs. Although AlphaScreen has significant advantages with its utility in a variety of epigenetic target assays, the primary screening data provided in this deposition should be used with caution due to the prevalence of screening artifacts. An AlphaScreen counterscreen is highly recommended to be run against any putative actives to eliminate non specific artifacts. Alternatively, one can use other AlphaScreen assays in PubChem to filter out promiscuous hits. Quinn et al. A chemiluminescence-based method for identification of histone lysine methyltransferase inhibitors. Mol Biosyst 6(5): 782-8. 2010. PMID: 20567762 [2] Baell,Holloway. New substructure filters for removal of pan assay interference compounds (PAINS) from screening libraries and for their exclusion in bioassays. J Med Chem. 53(7):2719-40. 2010. PMID: 20131845 NIH Molecular Libraries Probe Production Network [MLPCN] NIH Chemical Genomics Center [NCGC] Structural Genomics Consortium (SGC) NIH Grant: 5U54 MH084681-02
To each well of a 1,536w plate, 2ul of HMT enzyme (final 20nM) were added, using a nanoliter dispenser. The G9a- and GLP-inhibitor BIX-01294 (CID: 25150857) are used as an intraplate control, with a 16-point titration in duplicate. A Kalypsys pin-tool transferred 23nl of library compound solution in DMSO to each well. Following a 15 min incubation of enzyme with compounds at room temperature, 1ul mixture of b-H3K9 peptide substrate (final 500nM) and SAM cofactor (final 20uM) were added. Reactions were allowed to proceed at room temperature for 2 hours. Methylated b-H3K9 peptide product was detected with 0.5 ug/mL rabbit polyclonal anti-monomethyl histone H3K9 antibody (Abcam Inc., Cambridge, MA) and 20 ug/mL each streptavidin-coated donor and anti-rabbit IgG acceptor AlphaScreen beads. Antibody and beads were added in a 1ul dispense, for a final volume of 4ul, and plates were incubated, protected from the light, for 10 min at room temperature. Microplates were then read on an EnVision multilabel plate reader using the 1,536 plate HTS AlphaScreen aperture (excitation time 80 ms, measurement time 240 ms).
% is scaled to controls: 0 for no effect and ±100 for the full control effect; potency is read from the fitted curve at half-maximal effect; tags tell the direction and shape of the fitted curve.

UniProt Q96KQ7, sequence (Q96KQ7 whole entry, looked up): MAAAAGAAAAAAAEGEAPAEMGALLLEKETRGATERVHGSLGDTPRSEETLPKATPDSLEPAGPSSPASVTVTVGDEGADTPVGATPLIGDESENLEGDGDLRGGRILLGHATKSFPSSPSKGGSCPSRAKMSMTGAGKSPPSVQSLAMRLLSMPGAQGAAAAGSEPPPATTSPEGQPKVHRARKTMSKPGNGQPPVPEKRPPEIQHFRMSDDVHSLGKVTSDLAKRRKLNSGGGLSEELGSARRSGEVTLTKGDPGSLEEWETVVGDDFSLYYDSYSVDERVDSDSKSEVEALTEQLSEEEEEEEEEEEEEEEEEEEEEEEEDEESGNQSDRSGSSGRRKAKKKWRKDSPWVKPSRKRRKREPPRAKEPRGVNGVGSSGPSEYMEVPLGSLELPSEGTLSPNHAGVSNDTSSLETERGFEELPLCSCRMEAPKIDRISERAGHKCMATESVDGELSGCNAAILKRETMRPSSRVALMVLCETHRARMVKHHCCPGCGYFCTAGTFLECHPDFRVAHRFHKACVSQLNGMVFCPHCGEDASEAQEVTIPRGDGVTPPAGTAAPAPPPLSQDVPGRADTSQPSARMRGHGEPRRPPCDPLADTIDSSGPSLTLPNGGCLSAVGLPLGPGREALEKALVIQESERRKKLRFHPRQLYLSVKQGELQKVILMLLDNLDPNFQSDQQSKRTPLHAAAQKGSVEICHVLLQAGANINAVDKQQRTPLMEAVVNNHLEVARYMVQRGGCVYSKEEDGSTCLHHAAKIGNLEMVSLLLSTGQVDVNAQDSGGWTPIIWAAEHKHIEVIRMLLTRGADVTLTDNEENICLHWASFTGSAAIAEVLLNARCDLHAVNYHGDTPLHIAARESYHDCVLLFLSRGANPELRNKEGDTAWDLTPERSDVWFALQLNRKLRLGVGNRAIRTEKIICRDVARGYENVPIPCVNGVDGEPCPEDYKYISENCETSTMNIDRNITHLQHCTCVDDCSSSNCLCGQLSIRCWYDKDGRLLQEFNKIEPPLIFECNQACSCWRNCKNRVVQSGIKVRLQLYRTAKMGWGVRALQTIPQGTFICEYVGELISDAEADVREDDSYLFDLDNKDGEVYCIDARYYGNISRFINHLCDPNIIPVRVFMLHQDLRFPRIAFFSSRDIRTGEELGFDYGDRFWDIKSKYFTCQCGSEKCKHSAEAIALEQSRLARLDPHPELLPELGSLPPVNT

Compound	Potency	activity, negative = inhibition
CC[N+]1=C(C)C(C)(C)c2cc(C)ccc21	inconclusive: 44.7 µM [inhibitor, partial curve, poor fit]	–
Cc1cc(C(=O)OCC(=O)N2CC(C)OC(C)C2)c2ccccc2n1 (stereo not given)	inconclusive: 56.2 µM [inhibitor, partial curve, poor fit]	–
COc1ccccc1-c1coc2c(CN(C)C)c(O)ccc2c1=O	inconclusive: 89.1 µM [inhibitor, single point]	–
Clc1cccc(Cl)c1OCCCCN1CCCCC1	active: 22.4 µM	–
Cc1c(-n2c(SCC(=O)NC(C)C(C)C)nc3ccccc3c2=O)c(=O)n(-c2ccccc2)n1C (stereo not given)	–	inactive: -8.83% [at 12.7 µM]
Cc1ccc(OCCSc2nc3ccccc3n2CC(=O)O)cc1C	inconclusive: 89.1 µM [inhibitor, single point]	–
CC(C)NC(=O)c1ccc2c(c1)nc1n2CCCCC1	–	inactive: -20.3%
COc1cc(/C=N/NC(=O)CCn2c3ccccc3c3ccccc32)ccc1O	inconclusive: 35.5 µM [inhibitor, single point]	–
O=C(O)c1ccc(/C=N/NC(=O)c2cc(-c3ccc4c5c(cccc35)CC4)n[nH]2)cc1	inconclusive: 50.1 µM [inhibitor, partial curve, poor fit]	–
Cc1ccc(CNC(=O)CS(=O)(=O)c2cn(CC(=O)N3CCOCC3)c3ccccc23)cc1	active: 25.1 µM	–
CCCOc1ccc(CC(=O)NNC(=S)Nc2ccccc2)cc1Br	inconclusive: 10 µM [inhibitor, partial curve, poor fit]	–
O=C(Nc1ccc(Br)cc1)c1ccc(N2C(=O)C3CC=C(Cl)CC3C2=O)cc1 (stereo not given)	inconclusive: 15.8 µM [inhibitor, single point]	–
CCOC(=O)c1c(C)oc2c1c1c(c3ccccc32)OCN(Cc2ccccn2)C1	–	inactive: 12.3% [at 0.501 µM]
COc1ccc(-c2noc(CC(=O)Nc3cc(OC)ccc3OC)n2)cc1	–	inactive: -28.7%
CN(C)c1ccc(SC#N)cc1	active: 50.1 µM	–
CCOc1ccc(C(=O)NCc2ccco2)cc1	–	inactive: 4.56%
COc1ccccc1CNC(=O)c1cccc2c1C(=O)N(Cc1cccnc1)C2	–	inactive: -41% [at 102 µM]
COC(=O)c1c(NC(=O)CSc2nnc(-c3ccco3)n2Cc2ccccc2)sc(C)c1C	inconclusive: 70.8 µM [inhibitor, single point]	–

Compound	Potency	activity, negative = inhibition
O=C(c1ccc(Br)o1)N(c1ccc(Br)cc1)C1C=CS(=O)(=O)C1 (stereo not given)	inconclusive: 25.1 µM [inhibitor, single point]	–
CC(=O)c1ccc(NC(=O)c2cc(=O)[nH]c3ccccc23)cc1	–	inactive: -1.14%
CC(C)(CO)N=C1NS(=O)(=O)c2cc([N+](=O)[O-])ccc21	inconclusive: 89.1 µM [inhibitor, single point]	–
COc1cccc(-c2nnc(NC(=O)c3ccc4ncsc4c3)o2)c1	inconclusive: 22.4 µM [inhibitor, single point]	–
O=C(/C=C/c1ccc(Cl)cc1)N1CCC(c2nc3ccccc3o2)CC1	–	inactive: 3.13%
CC(=O)c1cccc(NC(=O)CN2C(=O)CC(c3ccc(C)cc3C)=Nc3ccccc32)c1	inconclusive: 11.2 µM [inhibitor, partial curve, poor fit]	–
CCCn1c(=O)c2sccc2n2c(CCCC(=O)N3CCN(c4cccc(Cl)c4)CC3)nnc12	–	inactive: 5.79%
Cc1cccc(OCCCC(=O)Nc2ccc(N3CCOCC3)cc2)c1	active: 12.6 µM	–
Cc1ccccc1C(=O)NNC(=O)CN1C(=O)c2ccccc2C1=O	inconclusive: 89.1 µM [inhibitor, single point]	–
O=C(O/N=C\c1ccc(N2CCOCC2)c([N+](=O)[O-])c1)c1ccccc1Cl	inconclusive: 35.5 µM [inhibitor, full curve, poor fit]	–
Cc1ccc(NC(=S)/C(=C(\[O-])c2ccc(C)c([N+](=O)[O-])c2)[n+]2ccccc2)cc1C	–	inconclusive: -67.9% [inhibitor]
CSc1ncccc1C(=O)OCc1cccc([N+](=O)[O-])c1	inconclusive: 8.91 µM [inhibitor, partial curve, poor fit]	–
O=C(c1ccco1)N1CCN(Cc2ccc(F)cc2Cl)CC1	–	inactive: -7.43% [at 102 µM]
COc1ccc(/C=C/c2cc(C(F)(F)F)[nH]c(=O)n2)cc1OC	–	inactive: 7.5% [at 102 µM]
Cc1c(C(=O)NNC(=O)c2csc(N3CCOCC3)n2)oc2ccccc12	–	inactive: 44.8% [at 12.7 µM]
CCOc1ccc(N2C(=O)/C(=C/c3ccccc3OCC(=O)OC)N(CC(=O)OC)C2=S)cc1	inconclusive: 28.2 µM [inhibitor, partial curve, poor fit]	–
Cc1c(N2C(=O)/C(=C\C3CC=CCC3)SC2=S)c(=O)n(-c2ccccc2)n1C (stereo not given)	inconclusive: 39.8 µM [inhibitor, single point]	–

Source: PubChem BioAssay AID504332 (National Center for Advancing Translational Sciences (NCATS), 2011)
